# Article PMC4336329 (PLoS ONE, 2015)
# Among all 310,000 compounds or so, about 2,200 (0.71%) showed an effect of 50% or more. Effects have a minus sign here. Some of the results follow.
# Molecular target: human ether-à-go-go-related gene (hERG) potassium channel (human, UniProt Q12809)
# Experiment: primary screen, population patch clamp on CHO cells stably expressing hERG
# Sequence of human ether-à-go-go-related gene (hERG) potassium channel (Q12809 whole entry, looked up): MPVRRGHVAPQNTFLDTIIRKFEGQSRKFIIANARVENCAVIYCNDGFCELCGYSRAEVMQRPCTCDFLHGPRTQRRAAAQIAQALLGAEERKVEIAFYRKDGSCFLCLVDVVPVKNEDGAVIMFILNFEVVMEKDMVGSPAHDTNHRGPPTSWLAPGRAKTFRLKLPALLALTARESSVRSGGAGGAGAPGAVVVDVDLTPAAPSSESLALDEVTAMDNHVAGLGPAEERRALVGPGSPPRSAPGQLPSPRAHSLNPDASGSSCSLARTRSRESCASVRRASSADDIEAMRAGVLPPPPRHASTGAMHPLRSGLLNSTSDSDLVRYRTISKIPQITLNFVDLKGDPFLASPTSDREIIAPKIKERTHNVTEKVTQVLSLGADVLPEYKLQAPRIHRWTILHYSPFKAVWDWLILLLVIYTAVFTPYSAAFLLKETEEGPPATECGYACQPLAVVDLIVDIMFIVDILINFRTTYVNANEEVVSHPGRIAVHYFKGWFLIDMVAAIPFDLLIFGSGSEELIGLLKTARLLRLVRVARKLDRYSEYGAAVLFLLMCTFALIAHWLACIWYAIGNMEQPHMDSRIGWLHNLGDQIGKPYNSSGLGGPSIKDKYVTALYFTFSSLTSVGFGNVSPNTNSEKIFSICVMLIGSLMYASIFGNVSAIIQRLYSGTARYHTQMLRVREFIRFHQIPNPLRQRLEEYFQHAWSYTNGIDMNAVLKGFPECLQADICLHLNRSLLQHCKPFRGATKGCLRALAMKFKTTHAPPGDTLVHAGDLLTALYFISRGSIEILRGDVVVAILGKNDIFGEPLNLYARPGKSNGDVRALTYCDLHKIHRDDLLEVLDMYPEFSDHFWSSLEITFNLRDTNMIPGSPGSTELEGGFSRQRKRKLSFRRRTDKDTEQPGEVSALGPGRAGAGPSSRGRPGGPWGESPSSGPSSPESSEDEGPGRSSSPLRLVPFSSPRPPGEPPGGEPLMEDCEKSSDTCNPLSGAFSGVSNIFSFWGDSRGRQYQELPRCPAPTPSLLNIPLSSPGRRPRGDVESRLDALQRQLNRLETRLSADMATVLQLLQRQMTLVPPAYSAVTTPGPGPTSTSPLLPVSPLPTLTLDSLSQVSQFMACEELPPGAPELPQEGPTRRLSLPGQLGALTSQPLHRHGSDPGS
row,SMILES,"hERG current change (%, negative = inhibition) at 1uM"
1,O=C1CN(S(=O)(=O)c2cc(Cl)ccc2Cl)c2ccccc2N1,9.79%
2,O=C(O)/C=C\c1cc2c(cc1[N+](=O)[O-])OCO2,14.5%
3,CC(=O)C1=C(O)C(=O)N(c2cc(C(C)(C)C)on2)C1c1ccc(C(C)C)cc1 (stereo not drawn),2.26%
4,CN(C)C1NC(=O)c2cc(-c3ccccc3)sc2N1 (stereo not drawn),1.11%
5,CCc1ccc(NC(=O)CCc2nc3cccnc3n2Cc2ccc(OC)cc2)cc1,6.9%
6,Cc1nc(/C(N)=N/OC(=O)Cc2ccccc2)no1,3.24%
7,Cc1ccc(NC(=O)c2ccccc2NS(=O)(=O)c2ccc(Cl)s2)cc1,8.59%
8,COc1ccc(C(C)=O)cc1COC(=O)c1ccc(S(=O)(=O)N2CCOCC2)cc1,8.54%
9,C/C(=N\NC(=O)c1c([N+](=O)[O-])c(C)nn1C)c1ccc(NC(=O)C2CCCC2)cc1,17.5%
10,CCN(CC)S(=O)(=O)c1cccc(NC(=O)c2cccc(S(=O)(=O)N3CCCC3)c2)c1,-49%
11,CCCc1ccc2oc(C(=O)NCCc3cnn(C)c3)c(C)c2c1,3.38%
12,Cc1ccc(NC(=O)NNC(=O)c2cc3ccccc3cc2O)c(C)c1,19.9%
13,CCOC(=O)N1CCN(S(=O)(=O)c2ccc(C(=O)N(CCN(C)C)c3nc4ccc(CC)cc4s3)cc2)CC1.Cl,-6.83%
14,Cc1ccccc1[C@@H]1C(C#N)=C(N)S[C@H]1C(=O)c1ccccc1,-1.66%
15,Cc1ccnc(Sc2ccc([N+](=O)[O-])cn2)n1,14.2%
16,CN(Cc1cnn(C)c1)C(=O)C1CCCCC1C(=O)O (stereo not drawn),2.4%
17,COC(=O)C(C)N1C(=O)S/C(=C\c2ccc(-c3ccc(C(=O)O)cc3C)o2)C1=O (stereo not drawn),8.93%
18,O=C([C@@H]1CCCN1C(=O)c1cccs1)N1CCN(S(=O)(=O)c2cccc(F)c2)CC1,17%
19,COc1ccccc1N(C)S(=O)(=O)c1ccc(C(=O)NCC2CCCCC2)cc1,11.6%
20,CC1=CSC2=NC(=O)/C(=C\c3cccn3-c3ccc([N+](=O)[O-])cc3)C(=N)N12,10.9%
21,O=C(C1CC(=O)N(c2ccc(F)cc2)C1)N1CCCCCC1 (stereo not drawn),12.3%
22,Cc1cc(=O)oc2cc(Oc3ccc([N+](=O)[O-])cc3[N+](=O)[O-])ccc12,-49.5%

row,SMILES,"hERG current change (%, negative = inhibition) at 1uM"
1,CCCC(=O)N1c2ccccc2NC2=C(C(=O)CCC2)C1c1ccc(F)cc1 (stereo not drawn),12.6%
2,CCN1C(=O)CC(N2CCN(c3ccc(OC)cc3)CC2)C1=O (stereo not drawn),1.87%
3,Cc1ccc(S(=O)(=O)NCC2CCC(C(=O)NCc3ccccn3)CC2)cc1 (stereo not drawn),7.25%
4,Cc1ccc(/C=C2\SC(=S)N(c3c(C)n(C)n(-c4ccccc4)c3=O)C2=O)cc1,8.87%
5,CS(=O)(=O)n1nc(OC(=O)c2cccc3ccccc23)cc1N,4.77%
6,CC(=O)CC(=O)Nc1ncc(C(F)(F)F)cc1Cl,12.7%
7,NNC(=O)CNS(=O)(=O)c1ccc([N+](=O)[O-])cc1,9.23%
8,O=c1[nH]c(SCc2ccccc2)nc2[nH]ncc12,6.86%
9,O=C(NCc1nc2ccccc2[nH]1)C1=C[C@H](c2coc3ccccc3c2=O)C[C@H](OCc2ccc(CO)cc2)O1,9%
10,COc1ccc(CCN(C)C(=O)C2CCN(Cc3ccc(C)cc3)CC2)cc1OC.O=C(O)C(=O)O,-16.4%
11,O=C(Cn1nnc(-c2ccccc2)n1)OC1CCOC1=O (stereo not drawn),10.8%
12,CC(C)C(=O)Nc1ccc(NC(=O)c2cccc(F)c2)cn1,12.2%
13,Cc1cc(C)cc(C(=O)NCC(=O)N2CCN(C(c3ccccc3)c3ccccc3)CC2)c1,11.9%
14,CCn1nc(C(=O)NC2=NCCS2)c2ccccc2c1=O,17.8%
15,CC(=C/c1ccco1)/C=N/NC(=O)Cc1cccn1C,-2.71%
16,CC(C)OCCCNC(=O)CNC(=O)c1ccc(Cl)c(Cl)c1,24%
17,CCCCNc1ccc(S(=O)(=O)c2cccc([N+](=O)[O-])c2)cc1[N+](=O)[O-],-1.13%
18,COC(=O)Cn1c2ccccc2c2nc(C)sc21,1.93%
19,Cc1ccc(NC(=O)CCc2c(C)nn(-c3ccc(N4CCCCC4)nn3)c2C)cc1F,3.97%
20,CC(C)(C)c1ccc(OC(=O)N2CCOCC2)cc1,13.8%
21,Cc1cc2c(N)cccc2nn1,6.52%
22,Cc1c(NC(=O)/C(C#N)=C/C2CC=CCC2)c(=O)n(-c2ccccc2)n1C (stereo not drawn),16.2%

row,SMILES,"hERG current change (%, negative = inhibition) at 1uM"
1,C#CCOCCOCCOCCNc1nc(N2CCN(C(=O)CCCCCCCCCCNC(=O)Cn3cc(C[C@@H](C)O)nn3)CC2)nc(N2CCN(C(=O)CCCCCCCCCCNC(=O)[C@@H](CCSC)n3cc(CCO)nn3)CC2)n1,5.83%
2,COc1cc2nc(Cl)nc(N3CCN(C)CC3)c2cc1OC,6.21%
3,CCC(C)(C)NC(=O)C(c1cccn1C)N(C(=O)Cn1nnc2ccccc21)c1ccc(OC)cc1OC (stereo not drawn),2.03%
4,Cc1ccc(S(=O)(=O)NCC(=O)Nc2cccc([N+](=O)[O-])c2)cc1,4.69%
5,Cc1ccc(N2CC(C(=O)Nc3c4c(nn3C(C)(C)C)CS(=O)(=O)C4)CC2=O)cc1 (stereo not drawn),9.81%
6,Cc1ccc(S(=O)(=O)N2CCCC2)cc1S(=O)(=O)N1CCCC1,8.58%
7,CC1CN(C(=S)SCC(=O)c2ccc(Cl)cc2)CC(C)O1 (stereo not drawn),11.8%
8,COCCCNC(=S)N/N=C/c1ccc(OC)cc1,14%
9,CSc1ccccc1NC(=O)CN(C)C(=O)/C=C/c1ccccc1,11.9%
10,C/C(CC(=O)Nc1ccccc1C(F)(F)F)=N\NC(=O)c1cnccn1,7.3%
11,COCC(C)NC(=O)c1ccc(N(C)C)cc1 (stereo not drawn),5.37%
12,CN(C)C=NC(=O)c1cccn1-c1ncc(C(F)(F)F)cc1Cl,6.5%
13,Cc1cc(C)cc(OCCNC(=O)C(C)N2C(=O)c3ccccc3C2=O)c1 (stereo not drawn),5.34%
14,COc1ccc(N2C(=O)CC(N3CCN(C4CCc5ccccc5C4)CC3)C2=O)cc1 (stereo not drawn),-37.7%
15,CC(C)c1nnc(SCC(=O)NCc2ccco2)n1C,6.97%
16,O=S1CCCSC1c1cccnc1 (stereo not drawn),-3.81%
17,Cc1ccccc1NC(=S)N(Cc1cccs1)C1CCCC1,1.53%
18,CC(=O)c1c(C)nc(C)nc1NC(=O)Cc1ccccc1,16%
19,COc1ccc(-c2cn3cc([N+](=O)[O-])ccc3n2)cc1OC,7.6%
20,O=C(NCCS(=O)(=O)NCc1cccnc1)c1ccccc1,5.54%
21,CN(C)c1cc[n+](CCC(=O)Nc2cccc([N+](=O)[O-])c2N)cc1.[Cl-],14.7%
22,O=C(Cn1nc(-c2ccccc2)ccc1=O)N1CCCCC1,-4.15%

row,SMILES,"hERG current change (%, negative = inhibition) at 1uM"
1,COc1ccc(NC(=O)C2CCCN(C(=O)NC3CCCCC3)C2)cc1OC (stereo not drawn),3.01%
2,CC(CC(=O)NC1CCSC1=O)c1ccccc1 (stereo not drawn),9.65%
3,CCOC(=O)C(Oc1ccc(=O)n(-c2ccccc2)n1)C(C)=O (stereo not drawn),4.54%
4,Cc1cc(C)c(S(=O)(=O)ON2C(=O)c3ccccc3C2=O)cc1C,-1.76%
5,O=C(c1ccccc1)N1CCN(C2CC(=O)N(CCc3ccccc3)C2=O)CC1 (stereo not drawn),2.33%
6,c1ccc2c(c1)CC1(CCCC1)N=C2N1CCOCC1,23.2%
7,NC(=O)C1(N2CCCCC2)CCN(Cc2ccccc2Cl)CC1,12.1%
8,O=C(c1ccc(Br)o1)N(Cc1ccccc1)Cc1ccccc1,4.84%
9,O=C(c1cc2cc(Cl)ccc2o1)N1CCCC1,15.7%
10,COc1cc2c(cc1OC)CN(c1nc(CN3CCOCC3)nc3sc4c(c13)CCCC4)CC2,-54%
11,CC(=O)c1ccc(OC(=O)COc2ccccc2)cc1,15.8%
12,O=C(O)C1C2C=CC3(O2)C1C(=O)N1c2ccccc2C2OCCC2C13 (stereo not drawn),7.38%
13,C1CCC(C(CC2CCCCN2)C2CCCCC2)CC1.O=C(O)/C=C\C(=O)O (stereo not drawn),8.76%
14,CCOC(=O)C1CCN(C(=O)c2ccc(OCC)c(OCC)c2)CC1,-43.7%
15,NC(=O)C1CCN(C(=O)c2ccc3nc(-c4ccccc4)c(-c4ccccc4)nc3c2)CC1,12.2%
16,O=S(=O)(Cc1ccccc1Cl)N1CCCCC1,2.78%
17,Cc1cccc(N(CC(=O)N/N=C/c2cc([N+](=O)[O-])ccc2Cl)S(C)(=O)=O)c1C,-0.0837%
18,Cc1ccc(C)c(OCC(=O)O/N=C(\N)c2cccnc2)c1,9.24%
19,CC(C)=CCc1c(O)cc2c(c1O)C(=O)CC(c1ccc(O)cc1)O2 (stereo not drawn),8.23%
20,Cc1ccc(Sc2ccc(N)cn2)cc1,4.94%
21,CCNc1nc(NCC)n2c(SCC(=O)Nc3ccc(NC(C)=O)cc3)nnc2n1,3.54%
